Measured values published in the supplement of paper PMC9446081.
The campaign covered roughly 39,000 compounds. About 220 (0.56%) showed activity. This is one part of the list.

test system: Escherichia coli K-12 BW25113; test: relative growth (OD600 normalised to plate interquartile mean) (fraction); higher = less growth inhibition, active = 0.2 or less; details: 50 µM; LB; incubation time: overnight (16-24 h)
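Note: static incubation at 37 °C against the wild-type strain, values averaged over two biological replicates.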

Row | Compound | relative growth
1 | C/C=C/c1ccc2c(c1)O[C@H](CN(C)Cc1ccc(C(=O)O)cc1)[C@@H](C)CN([C@@H](C)CO)S2(=O)=O | inactive: 1.06
2 | COc1ccc(NC(=O)N(C)C[C@@H]2Oc3c(NC(=O)c4ccc(-c5nccs5)cc4)cccc3C(=O)N([C@H](C)CO)C[C@H]2C)cc1 | inactive: 0.927
3 | C[C@@H]1CCCCO[C@H](CN(C)Cc2ccc(Cl)c(Cl)c2)[C@H](C)CN([C@@H](C)CO)C(=O)c2cc(NC(=O)CCC(F)(F)F)ccc2O1 | inactive: 1.01
4 | C[C@@H]1CN([C@H](C)CO)C(=O)CCCn2cc(nn2)CO[C@H]1CN(C)C(=O)Nc1ccc(N2CCCCC2)cc1 | inactive: 0.978
5 | C[C@H]1CN([C@@H](C)CO)C(=O)Cc2cc(NS(C)(=O)=O)ccc2O[C@@H]1CN(C)S(=O)(=O)c1ccc(F)cc1 | inactive: 1.03
6 | COc1ccc(S(=O)(=O)Nc2ccc3c(c2)C(=O)N([C@@H](C)CO)C[C@@H](C)[C@H](CN(C)Cc2ccc(C(=O)O)cc2)OCCCC[C@@H](C)O3)cc1 | inactive: 0.984
7 | NCC[C@@H]1CC[C@@H](NC(=O)Nc2ccc(F)cc2)[C@@H](CO)O1 | inactive: 0.984
8 | CCSc1ncnc(N)n1 | inactive: 1.03
9 | C[C@@H]1CN([C@H](C)CO)S(=O)(=O)c2ccc(-c3ccc(F)cc3)cc2O[C@@H]1CN(C)C(=O)C1CCOCC1 | inactive: 1.01
10 | C=CC1(C)CC(=O)C2(O)C(C)(O1)C(O)C(O)C1C(C)(C)CCC(O)C12C (stereo unspecified) | inactive: 0.925
11 | Cc1coc2c1C(=O)C(=O)c1c-2ccc2c1CCCC2(C)C | inactive: 1.12
12 | NC(CO)C(=O)O (stereo unspecified) | inactive: 1.08
13 | COc1ccc(NC(=O)N(C)C[C@@H]2Oc3ncc(C#CC(C)C)cc3C(=O)N([C@@H](C)CO)C[C@@H]2C)cc1 | inactive: 0.977
14 | O=C(/C=C/c1ccc(O)c(O)c1)O[C@H]1[C@H](O)C[C@](O)(C(=O)O)C[C@H]1O | inactive: 1.02
15 | C[C@@H]1CN([C@@H](C)CO)C(=O)c2cccc(NC(=O)C3CCOCC3)c2O[C@@H]1CN(C)S(=O)(=O)c1ccc(F)cc1 | inactive: 0.993
16 | C[C@H](NC(=O)N(C)C[C@H]1OCc2ccccc2-c2c(n(C)c3ccccc23)C(=O)N([C@@H](C)CO)C[C@H]1C)c1ccccc1 | inactive: 0.998
17 | C[C@@H]1CN([C@@H](C)CO)C(=O)Cc2cc(NS(C)(=O)=O)ccc2O[C@@H]1CN(C)Cc1ccc2c(c1)OCO2 | inactive: 1.01
18 | Cc1ccc(S(=O)(=O)Nc2ccc3c(c2)C(=O)N([C@H](C)CO)C[C@H](C)[C@@H](CN(C)C(=O)NC(C)C)O3)cc1 | inactive: 0.995
19 | CO[C@H](CN(C)C(=O)c1ccc2c(c1)OCO2)[C@H](C)CN([C@H](C)CO)S(=O)(=O)c1ccc(F)cc1 | inactive: 1.04
20 | CC(C)(C)NC(=O)N1CCC(CN)CC1 | inactive: 1.01
21 | Cc1noc(C)c1NC(=O)Nc1ccc2c(c1)C(=O)N([C@H](C)CO)C[C@H](C)[C@H](CN(C)C(=O)C1CCCCC1)OCCCC[C@H](C)O2 | inactive: 0.995

Row | Compound | relative growth
22 | Cc1noc(C)c1NC(=O)N(C)C[C@@H]1OCCCC[C@H](C)Oc2ccc(NC(=O)Nc3ccc4c(c3)OCO4)cc2C(=O)N([C@H](C)CO)C[C@@H]1C | inactive: 1
23 | Cc1ccc(S(=O)(=O)Nc2ccc3c(c2)CC(=O)N([C@H](C)CO)C[C@H](C)[C@@H](CN(C)S(=O)(=O)c2cn(C)cn2)O3)cc1 | inactive: 1
24 | C[C@@H]1CCCCO[C@H](CN(C)Cc2ccc3c(c2)OCO3)[C@H](C)CN([C@H](C)CO)C(=O)c2cc(NC(=O)NC3CCCCC3)ccc2O1 | inactive: 1.02
25 | CCN(CC)CCS(=O)(=O)[C@@H]1CCN2C(=O)c3coc(n3)CC(=O)C[C@H](O)/C=C(C)/C=C\CNC(=O)/C=C/[C@@H](C)[C@H](C(C)C)OC(=O)[C@@H]12 | inactive: 0.972
26 | C[C@H]1CN([C@@H](C)CO)C(=O)c2cc(-c3cccc(C(=O)N(C)C)c3)cnc2O[C@@H]1CN(C)S(=O)(=O)c1cccc(F)c1 | inactive: 0.992
27 | C[C@H](CO)N1C[C@H](C)[C@H](CN(C)Cc2ccncc2)OCCCC[C@H](C)Oc2ccc(NC(=O)Nc3ccc(F)cc3)cc2C1=O | inactive: 0.997
28 | NCCNc1cccc2ccccc12 | inactive: 0.949
29 | C[C@@H]1CCCCO[C@@H](CN(C)C(=O)NC2CCCCC2)[C@H](C)CN([C@H](C)CO)C(=O)c2cc(NC(=O)c3ccncc3)ccc2O1 | inactive: 0.981
30 | O=C(C[C@@H]1CC[C@H](NC(=O)Cc2ccccn2)[C@@H](CO)O1)NCCCN1CCOCC1 | inactive: 0.994
31 | Cc1ccc(S(=O)(=O)N(C)C[C@@H]2Oc3c(NS(=O)(=O)c4ccccc4)cccc3C(=O)N([C@@H](C)CO)C[C@H]2C)cc1 | inactive: 0.959
32 | CC(C)NC(=O)Nc1ccc2c(c1)C(=O)N([C@H](C)CO)C[C@H](C)[C@H](CN(C)C(=O)C1CCCCC1)OCCCC[C@@H](C)O2 | inactive: 1.02
33 | C[C@H]1CCCCO[C@@H](CN(C)C(=O)Nc2cccc3ccccc23)[C@@H](C)CN([C@@H](C)CO)C(=O)c2cc(NS(=O)(=O)c3cccs3)ccc2O1 | inactive: 0.995
34 | C[C@@H]1CN([C@H](C)CO)C(=O)c2cccc(NC(=O)Nc3ccc(F)cc3)c2O[C@H]1CN(C)S(=O)(=O)c1cn(C)cn1 | inactive: 0.969
35 | C[C@H](CO)N1C[C@H](C)[C@@H](CN(C)Cc2ccc(Oc3ccccc3)cc2)Oc2ccc(NC(=O)C3CC3)cc2C1=O | inactive: 0.915
36 | N=C(NO)c1ccccc1N | inactive: 1.02
37 | COc1ccc(CN(C)C[C@@H]2OCCCC[C@@H](C)Oc3ccc(NS(=O)(=O)c4ccc(Cl)cc4)cc3C(=O)N([C@@H](C)CO)C[C@H]2C)cc1 | inactive: 1.01
38 | C[C@H](CO)N1C[C@H](C)[C@@H](CN(C)S(=O)(=O)c2cccc(F)c2)Oc2ncc(C#CC3(O)CCCC3)cc2C1=O | inactive: 1.01
39 | Cc1ccccc1-c1ccc2c(c1)O[C@H](CN(C)C(=O)Nc1ccc(C(F)(F)F)cc1)[C@@H](C)CN([C@@H](C)CO)S2(=O)=O | inactive: 0.981
40 | COc1ccc(NC(=O)Nc2ccc3c(c2)C(=O)N([C@@H](C)CO)C[C@H](C)[C@H](CN(C)Cc2ccc(C(=O)O)cc2)OCCCC[C@H](C)O3)cc1 | inactive: 1
41 | CN1CCN(C(=O)C[C@@H]2C=C[C@H](NC(=O)Nc3ccccc3F)[C@@H](CO)O2)CC1 | inactive: 1.01
42 | C=CCN(CC=C)S(=O)(=O)c1nnc[nH]1 | inactive: 0.972

Row | Compound | relative growth
43 | C[C@H]1CN([C@@H](C)CO)C(=O)c2cc(NC(=O)Cn3cnnn3)ccc2O[C@@H]1CN(C)S(=O)(=O)c1cccs1 | inactive: 0.984
44 | CCCCCC[C@@H](O)CC=CCCCCCCCC(=O)O | inactive: 0.998
45 | C[C@@H]1CCCCO[C@@H](CN(C)S(=O)(=O)c2ccc(F)cc2)[C@H](C)CN([C@H](C)CO)C(=O)c2cc(NC(=O)CCC(F)(F)F)ccc2O1 | inactive: 0.969
46 | COc1cccc(-c2ccc3c(c2)O[C@H](CN(C)C(=O)C2CC2)[C@H](C)CN([C@H](C)CO)S3(=O)=O)c1 | inactive: 0.991
47 | C[C@H]1CN([C@@H](C)CO)C(=O)Cc2cc(NC(=O)Cn3cnnn3)ccc2O[C@@H]1CN(C)Cc1ccc(Cl)c(Cl)c1 | inactive: 0.98
48 | Cc1ccc(S(=O)(=O)Nc2ccc3c(c2)C(=O)N([C@@H](C)CO)C[C@H](C)[C@@H](CN(C)C(=O)CCC(F)(F)F)OCCCC[C@@H](C)O3)cc1 | inactive: 1.03
49 | CCCNC(=O)C[C@H]1CC[C@H]2[C@H](COc3ccc(NS(=O)(=O)c4ccccc4C)cc3C(=O)N2C)O1 | inactive: 0.998
50 | CC(C)NC(=O)N(C)C[C@H]1Oc2ccc(NC(=O)c3ccncc3)cc2CC(=O)N([C@H](C)CO)C[C@H]1C | inactive: 0.961
51 | C[C@@H]1CCCCO[C@H](CN(C)S(=O)(=O)c2cccs2)[C@H](C)CN([C@H](C)CO)C(=O)c2cc(NC(=O)Nc3ccc(F)cc3)ccc2O1 | inactive: 1.03
52 | C[C@@H]1CN([C@@H](C)CO)C(=O)c2cccc(NC(=O)C3CCCCC3)c2O[C@H]1CN(C)Cc1ccc(-c2ccccc2)cc1 | inactive: 1.04
53 | COc1cccc(CN(C)C[C@@H]2OCc3ccccc3-c3c(n(C)c4ccccc34)C(=O)N([C@H](C)CO)C[C@H]2C)c1 | inactive: 1
54 | C[C@H](CO)N1C[C@H](C)[C@H](CN(C)C(=O)Nc2ccc3c(c2)OCO3)Oc2ccc(NS(C)(=O)=O)cc2CC1=O | inactive: 0.983
55 | CC(C)NC(=O)N(C)C[C@@H]1OCCCC[C@@H](C)Oc2ccc(NS(=O)(=O)c3cn(C)cn3)cc2C(=O)N([C@@H](C)CO)C[C@H]1C | inactive: 0.993
56 | C[C@@H]1CN([C@@H](C)CO)C(=O)c2cc(NC(=O)Cc3ccccc3)ccc2O[C@@H]1CN(C)Cc1ccc(C(=O)Nc2ccccc2N)cc1 | inactive: 1.02
57 | C[C@@H]1CN([C@@H](C)CO)C(=O)c2cc(NS(C)(=O)=O)ccc2O[C@@H]1CN(C)C(=O)NC1CCCCC1 | inactive: 0.987
58 | CO[C@@H]1CN(C)C(=O)c2ccc(NC(C)=O)cc2OC[C@H](C)N(S(=O)(=O)c2cn(C)cn2)C[C@H]1C | inactive: 0.999
59 | C[C@H]1CN([C@@H](C)CO)S(=O)(=O)c2ccc(-c3ccc(C(=O)N(C)C)cc3)cc2O[C@@H]1CN(C)C(=O)C1CCOCC1 | inactive: 0.974
60 | NC[C@H](c1ccco1)N1CCN(c2ccc(F)cc2)CC1 | inactive: 0.999
61 | C[C@H](CO)N1C[C@H](C)[C@H](CN(C)S(C)(=O)=O)Oc2ccc(NC(=O)Nc3ccc(F)cc3)cc2C1=O | inactive: 0.978
